Reference: publication PMC12820563, “FoxP3 forms a head-to-head dimer in vivo and stabilizes its multimerization on adjacent microsatellites”
The other results are listed elsewhere or left out.

Target: T1, MBP-FoxP1dN (Mus musculus, UniProt P58462 326-579)
T1 sequence: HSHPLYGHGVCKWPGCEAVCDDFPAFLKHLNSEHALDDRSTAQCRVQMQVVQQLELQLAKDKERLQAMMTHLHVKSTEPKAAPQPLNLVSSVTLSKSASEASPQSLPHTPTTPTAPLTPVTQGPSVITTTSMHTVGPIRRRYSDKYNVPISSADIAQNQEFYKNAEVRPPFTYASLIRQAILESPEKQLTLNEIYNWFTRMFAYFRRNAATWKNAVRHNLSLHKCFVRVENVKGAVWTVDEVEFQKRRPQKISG
Assay: PD-seq (MBP pull-down with sequencing); 20 mM Tris-HCl pH 7.5, 100 mM NaCl, 1.5 mM MgCl2, 0.4 uM protein, 0.1 uM dsDNA library, 30 min, room temperature, amylose pull-down; high values mean tight binding
Settings: protein: recombinant; tags: His6-MBP; chain copies: 2; dsDNA, one strand shown
Procedure, shortened: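 Binding is the reads-per-million enrichment of pull-down relative to input, pooled across replicates. For this, 0.4 µM His6-MBP-tagged mouse FoxP3 or FoxP1 fragment lacking the N-terminus, made in E. coli, was incubated with 0.1 µM Klenow-filled double-stranded degenerate DNA library for 30 min at room temperature in Tris pH 7.5 buffer with NaCl and MgCl2. Complexes bound to amylose resin were washed three times before proteinase K released the DNA for PCR barcoding and Illumina sequencing.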

Sequence	binding signal
GATGATTGTTCTCCCAGCTGATGAATTCTCGTACTCGAGTAAACAAATTTTCCTAATCTTTCTGTTCAAGCGCCATCTAC	0.847 RPM ratio (pull-down/input)
GATGATTGTTCTCCCAGCTGATGAATTTGAGCAGTCGAGTAAACAAATTTTCCTAATCTTTCTGTTCAAGCGCCATCTAC	0.786 RPM ratio (pull-down/input)
GATGATTGTTCTCCCAGCTGATGAATTCGAATGCTCGAGTAAACAAATTTTCCTAATCTTTCTGTTCAAGCGCCATCTAC	0.993 RPM ratio (pull-down/input)
GATGATTGTTCTCCCAGCTGATGAATTTTAACGATCGAGTAAACAAATTTTCCTAATCTTTCTGTTCAAGCGCCATCTAC	0.89 RPM ratio (pull-down/input)
GATGATTGTTCTCCCAGCTGATGAATTTGCGGGGTCGAGTAAACAAATTTTCCTAATCTTTCTGTTCAAGCGCCATCTAC	0.86 RPM ratio (pull-down/input)
GATGATTGTTCTCCCAGCTGATGAATTTACGGCCTCGAGTAAACAAATTTTCCTAATCTTTCTGTTCAAGCGCCATCTAC	1.03 RPM ratio (pull-down/input)
GATGATTGTTCTCCCAGCTGATGAATTACTTCACTCGAGTAAACAAATTTTCCTAATCTTTCTGTTCAAGCGCCATCTAC	1.09 RPM ratio (pull-down/input)
GATGATTGTTCTCCCAGCTGATGAATTTAAGTCCTCGAGTAAACAAATTTTCCTAATCTTTCTGTTCAAGCGCCATCTAC	0.798 RPM ratio (pull-down/input)
GATGATTGTTCTCCCAGCTGATGAATTTATCCCCTCGAGTAAACAAATTTTCCTAATCTTTCTGTTCAAGCGCCATCTAC	0.996 RPM ratio (pull-down/input)
GATGATTGTTCTCCCAGCTGATGAATTTGTTTATTCGAGTAAACAAATTTTCCTAATCTTTCTGTTCAAGCGCCATCTAC	2.89 RPM ratio (pull-down/input)
GATGATTGTTCTCCCAGCTGATGAATTGTAGAGGTCGAGTAAACAAATTTTCCTAATCTTTCTGTTCAAGCGCCATCTAC	0.831 RPM ratio (pull-down/input)
GATGATTGTTCTCCCAGCTGATGAATTCCGGCGGTCGAGTAAACAAATTTTCCTAATCTTTCTGTTCAAGCGCCATCTAC	0.688 RPM ratio (pull-down/input)
GATGATTGTTCTCCCAGCTGATGAATTAGCCCCTTCGAGTAAACAAATTTTCCTAATCTTTCTGTTCAAGCGCCATCTAC	0.88 RPM ratio (pull-down/input)
GATGATTGTTCTCCCAGCTGATGAATTTGTGTAGTCGAGTAAACAAATTTTCCTAATCTTTCTGTTCAAGCGCCATCTAC	1.46 RPM ratio (pull-down/input)
GATGATTGTTCTCCCAGCTGATGAATTCAGTCTGTCGAGTAAACAAATTTTCCTAATCTTTCTGTTCAAGCGCCATCTAC	0.821 RPM ratio (pull-down/input)
GATGATTGTTCTCCCAGCTGATGAATTACACCTTTCGAGTAAACAAATTTTCCTAATCTTTCTGTTCAAGCGCCATCTAC	1.24 RPM ratio (pull-down/input)
GATGATTGTTCTCCCAGCTGATGAATTTATTGCCTCGAGTAAACAAATTTTCCTAATCTTTCTGTTCAAGCGCCATCTAC	1.25 RPM ratio (pull-down/input)
GATGATTGTTCTCCCAGCTGATGAATTGGGGTCTTCGAGTAAACAAATTTTCCTAATCTTTCTGTTCAAGCGCCATCTAC	0.899 RPM ratio (pull-down/input)
GATGATTGTTCTCCCAGCTGATGAATTGCAACCTTCGAGTAAACAAATTTTCCTAATCTTTCTGTTCAAGCGCCATCTAC	1.43 RPM ratio (pull-down/input)
GATGATTGTTCTCCCAGCTGATGAATTCTAGGGTTCGAGTAAACAAATTTTCCTAATCTTTCTGTTCAAGCGCCATCTAC	0.785 RPM ratio (pull-down/input)

Sequence	binding signal
GATGATTGTTCTCCCAGCTGATGAATTAGCCCCCTCGAGTAAACAAATTTTCCTAATCTTTCTGTTCAAGCGCCATCTAC	0.831 RPM ratio (pull-down/input)
GATGATTGTTCTCCCAGCTGATGAATTGCGCAGCTCGAGTAAACAAATTTTCCTAATCTTTCTGTTCAAGCGCCATCTAC	0.996 RPM ratio (pull-down/input)
GATGATTGTTCTCCCAGCTGATGAATTATGTCACTCGAGTAAACAAATTTTCCTAATCTTTCTGTTCAAGCGCCATCTAC	1.21 RPM ratio (pull-down/input)
GATGATTGTTCTCCCAGCTGATGAATTGCTGTCGTCGAGTAAACAAATTTTCCTAATCTTTCTGTTCAAGCGCCATCTAC	1.11 RPM ratio (pull-down/input)
GATGATTGTTCTCCCAGCTGATGAATTGCAACGTTCGAGTAAACAAATTTTCCTAATCTTTCTGTTCAAGCGCCATCTAC	1.33 RPM ratio (pull-down/input)
GATGATTGTTCTCCCAGCTGATGAATTGGTGCAGTCGAGTAAACAAATTTTCCTAATCTTTCTGTTCAAGCGCCATCTAC	0.989 RPM ratio (pull-down/input)
GATGATTGTTCTCCCAGCTGATGAATTTCGCGTCTCGAGTAAACAAATTTTCCTAATCTTTCTGTTCAAGCGCCATCTAC	0.786 RPM ratio (pull-down/input)
GATGATTGTTCTCCCAGCTGATGAATTTTGGACGTCGAGTAAACAAATTTTCCTAATCTTTCTGTTCAAGCGCCATCTAC	0.939 RPM ratio (pull-down/input)
GATGATTGTTCTCCCAGCTGATGAATTGAGGGCCTCGAGTAAACAAATTTTCCTAATCTTTCTGTTCAAGCGCCATCTAC	0.807 RPM ratio (pull-down/input)
GATGATTGTTCTCCCAGCTGATGAATTGGTTGCTTCGAGTAAACAAATTTTCCTAATCTTTCTGTTCAAGCGCCATCTAC	1.07 RPM ratio (pull-down/input)
GATGATTGTTCTCCCAGCTGATGAATTGGCACGATCGAGTAAACAAATTTTCCTAATCTTTCTGTTCAAGCGCCATCTAC	0.878 RPM ratio (pull-down/input)
GATGATTGTTCTCCCAGCTGATGAATTGGCTCAGTCGAGTAAACAAATTTTCCTAATCTTTCTGTTCAAGCGCCATCTAC	0.766 RPM ratio (pull-down/input)
GATGATTGTTCTCCCAGCTGATGAATTAGGTAATTCGAGTAAACAAATTTTCCTAATCTTTCTGTTCAAGCGCCATCTAC	1.06 RPM ratio (pull-down/input)
GATGATTGTTCTCCCAGCTGATGAATTCGTGGGGTCGAGTAAACAAATTTTCCTAATCTTTCTGTTCAAGCGCCATCTAC	0.729 RPM ratio (pull-down/input)
GATGATTGTTCTCCCAGCTGATGAATTAAAACCTTCGAGTAAACAAATTTTCCTAATCTTTCTGTTCAAGCGCCATCTAC	0.884 RPM ratio (pull-down/input)
GATGATTGTTCTCCCAGCTGATGAATTACATCTTTCGAGTAAACAAATTTTCCTAATCTTTCTGTTCAAGCGCCATCTAC	1.23 RPM ratio (pull-down/input)
GATGATTGTTCTCCCAGCTGATGAATTATCCTCATCGAGTAAACAAATTTTCCTAATCTTTCTGTTCAAGCGCCATCTAC	0.96 RPM ratio (pull-down/input)
GATGATTGTTCTCCCAGCTGATGAATTCATATACTCGAGTAAACAAATTTTCCTAATCTTTCTGTTCAAGCGCCATCTAC	1.07 RPM ratio (pull-down/input)
GATGATTGTTCTCCCAGCTGATGAATTCAGAACATCGAGTAAACAAATTTTCCTAATCTTTCTGTTCAAGCGCCATCTAC	0.998 RPM ratio (pull-down/input)
GATGATTGTTCTCCCAGCTGATGAATTCGGAAGGTCGAGTAAACAAATTTTCCTAATCTTTCTGTTCAAGCGCCATCTAC	0.817 RPM ratio (pull-down/input)
